According to patent publication US11571480B2, “Multi-ligand drug conjugates and uses thereof” (priority 2015, dated 2023):
Part of at least one peptide drawing is inferred or uncertain, most often the ends.

Tested on: Transplanted H460 tumor
Test: Inhibitory assay of conjugates LDC11A, LDC11B against xenograf tumors
Format: in vivo, nude mice
Settings: 10 mg/kg
Procedure: Animal: nude mice, aged 6-8 weeks, female
1) human large cell lung cancer cell H460, ovarian cancer cell SKOV3, breast cancer cell line HCC1954, and human breast cancer cell SK-BR-3 were incubated at 37° C., 5% CO2 in IMDM medium containing 10% fetal bovine serum, the cells were passaged every 2-3 days.
2) generation of tumors: 7×10^6 tumor cells were subcutaneously injected into the back of nude mice, and the mice were grouped for treatment after the tumor sizes were as large as about 100˜200 mm^3.
3) treatment: 3 mice/group, treated with LDC11A, LDC11B, as well as controls MMAE and PBS with doses of 5 and 10 mg/kg every 5 days, three injections.
4) the physical performance, body weights and tumor sizes of the animals were monitored. The number of animal death was recorded during the experiment.

CC[C@H](C)[C@@H]([C@@H](CC(=O)N1CCC[C@H]1[C@H](OC)[C@@H](C)C(=O)N[C@H](C)[C@@H](O)c1ccccc1)OC)N(C)C(=O)[C@@H](NC(=O)[C@H](C(C)C)N(C)C(=O)OCc1ccc(NC(=O)[C@H](CCCNC(N)=O)NC(=O)[C@@H](NC(=O)CCCCCN2C(=O)CC(SC[C@H](NC(=O)CNC(=O)[C@@H]3CCCN3C(=O)[C@H](CCCNC(=N)N)NC(=O)[C@H](CC(C)C)NC(=O)CNC(=O)[C@H](Cc3ccc(O)cc3)NC(=O)[C@H](CO)NC(=O)[C@H](Cc3c[nH]c4ccccc34)NC(=O)[C@H](Cc3c[nH]cn3)NC(=O)[C@@H](N)CCC(=O)O)C(=O)O)C2=O)C(C)C)cc1)C(C)C (stereo partly drawn) [LDC11A, P11-MC-Val-Cit-PAB-MMAE, reference compound]
Tumor size (Before Injection): 294 mm^3 | Tumor size (Five days after Injection 1): Death | Tumor size (Three days after Injection 1): 300 mm^3
